The values that follow come from the supplement of paper PMC4604168 (melanoma cell lines).

This is one part of the list. Single values are uncertain, as repeats are few or missing.
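Further: cells treated in 1,536-well plates, then fixed and DAPI-stained, with nuclei counted from automated high-throughput microscope images.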

The experiment relates to A101D. The experiment can be described thus: cell count relative to DMSO control; melanoma cells; higher = more viable cells. As to conditions: library dose: standard library concentration; 72 h.
`Cn1nnc2c(C(N)=O)ncn2c1=O` [temozolomide] + CN(NC(=O)CC(=O)NN(C)C(=S)c1ccccc1)C(=S)c1ccccc1 [STA4783] (first compound 10 µM, partner dose 0.03 µM) yielded a cell count of 62.7%.
Turning to `Cn1nnc2c(C(N)=O)ncn2c1=O` [temozolomide] + CO[C@@H]1[C@H](N(C)C(=O)c2ccccc2)C[C@H]2O[C@]1(C)n1c3ccccc3c3c4c(c5c6ccccc6n2c5c31)C(=O)NC4 [Midostaurin] (first compound 10 µM, partner dose 0.4 µM), the cell count was 70.4%.
The molecule `O=C(O)c1ccc2c(c1)nc(Nc1cccc(Cl)c1)c1ccncc12` + CN(C)S(=O)(=O)c1ccc2c(c1)/C(=C/c1cc3c([nH]1)CCCC3)C(=O)N2 [SU6656] (first compound 2 µM, partner dose 2 µM) showed a cell count of 53.8%.
On to `O=C(O)c1ccc2c(c1)nc(Nc1cccc(Cl)c1)c1ccncc12` + C=CCNC1=C2C[C@@H](C)C[C@H](OC)[C@H](O)[C@@H](C)/C=C(\C)[C@H](OC(N)=O)[C@@H](OC)/C=C\C=C(/C)C(=O)NC(=CC1=O)C2=O [Tanespimycin] (first compound 2 µM, partner dose 0.01 µM), for which the cell count turned out to be 62.3%.
`O=C(Nc1cc(C(F)(F)F)cc(C(F)(F)F)c1)c1cc(Cl)ccc1O` + CNC(=O)c1cc(Oc2ccc(NC(=O)Nc3ccc(Cl)c(C(F)(F)F)c3)cc2)ccn1 [sorafenib] (first compound 0.08 µM, partner dose 2 µM): the cell count came to 84.3%.
